Where a chain is given by its changes, count along the chain named.
Key:
[1] = biological target: T1, recombinant MBP-mutCALR Type 1 fusion protein (Homo sapiens, UniProt P27797, DEL40-40); test: Biacore SPR binding kinetics, Experiment 1; details: Biacore 8K, 25° C., 1:1 binding model
T1 construct: His6 (N); purchased Cepter (cepterbiopartners.com), custom made
Procedure: The amino acid sequence of recombinant MBP-mutCALR Type 1 fusion protein used in Experiments 1 and 2 is:
Experiment 1: Recombinant MBP-mutCALR Type 1 fusion protein was custom made at Cepter (cepterbiopartners.com). Data for the interaction of antibodies with recombinant MBP-mutCALR Type 1 fusion protein were collected at 25° C. on a Biacore 8K instrument (Cytiva, Marlborough, Mass.), and all reagents were obtained from Cytiva unless otherwise specified. The experiments were conducted using Tris-buffered saline (pH 7.2), 0.005% Surfactant P20, 1 mM CaCl2) as running buffer. To prepare the capture surfaces, anti-human IgG (Fc) antibodies (Product #29234600) was amine-coupled onto a CM4 chip (Product #BR100534) under standard conditions using an Amine Coupling Kit (Product #BR100050). Anti-mutCALR antibodies were captured onto the chip surface by injecting over flow cell 2 only at a flow rate of 30 μL/min for 30 seconds. […] The kinetics parameters were obtained by applying 1:1 binding model to fit the data from multiple-cycle injection experiments using Biacore Insight Evaluation software.

[2] = test system: Ba/F3 cells transfected with MPL and mutCALR Type 1; test: Inhibition of cell proliferation, CellTiter-Glo 72 hours, mutCALR Type 1; assay type: cell-based; details: Ba/F3 engineered cells, high-throughput primary screening
Procedure: To test the ability of anti-mutCALR antibodies to inhibit cell proliferation, engineered Ba/F3 cells transfected with MPL and mutCALR Type 1 were plated at 5,000 cells per well in RPMI 1640+2% FBS, antibodies added, incubated for 72 hours, and followed by assessment of cell viability using the CellTiter-Glo Luminescent Cell Viability Assay (Promega, Madison, Wis.) and Top Count (Perkin Elmer, Boston, Mass.) or Pherastar (BMG Labtech, Ortenberg, Germany) for luminescence quantification. Anti-mutCALR antibodies inhibit mutCALR-induced oncogenic cell proliferation in a dose-dependent manner in both the Ba/F3 engineered cells (FIG. 2).
To test the ability of anti-mutCALR antibodies to inhibit oncogenic cell proliferation triggered by the Type 1 and Type 2 CALR mutations, Ba/F3 cells (DSMZ) were engineered to express MPL+mutCALR Type 1 (52 bp deletion, SEQ ID NO:320) or MPL+mutCALR Type 2 (5 bp insertion; SEQ ID NO:321). Cells were plated at 5,000 cells per well in RPMI 1640+2% FBS, antibodies added, incubated for 72 hours, and followed by assessment of cell viability using the CellTiter-Glo Luminescent Cell Viability Assay (Promega, Madison, Wis.) and Top Count (Perkin Elmer, Boston, Mass.) or Pherastar (BMG Labtech, Ortenberg, Germany) for luminescence quantification. Anti-mutant CALR antibodies show potency to inhibit mutCALR-induced oncogenic cell proliferation associated with both Type 1 and Type 2 mutations (FIG. 3).

[3] = test system: MPL-mutCALR cells (BaF3 cells stably expressing human MPL and human mutCALR); test: Flow cytometry binding to cell surface MPL and mutCALR (GMFI, four parameter fit); details: for MPL-mutCALR AUC: area under the curve of GMFI cell binding; for MPL-mutCALR EC50 (μg/ml) / MPL-mutCALR Hill Slope: cell binding, GMFI, four parameter curve fitting
Procedure: To assess binding of CALR antibodies to cell surface CALR, parental BaF3 (DSMZ) cells or BaF3 cells stably expressing only human MPL or both human MPL (Uniprot Number: P40238-1) and human mutCALR Type 1 and Type 2 were used. On the day of the assay, cells were washed and resuspended in assay buffer. Approximately 200,000 cells/well were added to 96-well plates and stained with the indicated concentration of antibodies for 30 minutes on ice. Cells were then washed and stained with goat anti-human secondary conjugated to R-phycoerythrin (R-PE) (Jackson Immuno Research Laboratories) for 30 minutes on ice. The cells were then washed and analyzed by flow cytometry. Geometric Mean Fluorescence Intensity (GMFI) of cell binding was graphed and EC50, hill slope, and area under the curve (AUC) were determined after four parameter curve fitting using GraphPad Prism Software (version 7.04).

[4] = test system: Ba/F3-TPOR/mutCALR type 1 engineered cells; test: Cell proliferation with antibody and/or ruxolitinib, mutCALR Type 1; assay type: cell-based; details: log value, 72 hours
Procedure: To test the ability of anti-mutCALR antibodies to potentiate the therapeutic response of the JAK1/2 inhibitor ruxolitinib, Ba/F3 cells were engineered to express MPL+mutCALR Type 1 (52 bp deletion) or MPL+mutCALR Type 2 (5 bp insertion) as described above. Cells were plated at 5,000 cells per well in RPMI 1640+2% FBS, treated with 50 nM of ruxolitinib and/or anti-mutCALR antibodies. Cells were incubated for 72 hours followed by assessment of cell viability using the CellTiter-Glo Luminescent Cell Viability Assay (Promega, Madison, Wis.) and Top Count (Perkin Elmer, Boston, Mass.) or Pherastar (BMG Labtech, Ortenberg, Germany) for luminescence quantification. Ruxolitinib used at a concentration of 50 nM inhibited the level of oncogenic cell proliferation by approximately 20% (dotted line).

B1: 44 (antibody)
heavy: EVQLVQSGAEVKKPGSSVKVSCKASGGTFSSYAISWVRQAPGQGLEWMGGIIPIFGTANYAQKFQGRVTITADESTSTAYMELSSLRSEDTAVYYCASSPLRGSGWYWHYYYGMDVWGQGTTVTVSSASTKGPSVFPLAPSSKSTSGGTAALGCLVKDYFPEPVTVSWNSGALTSGVHTFPAVLQSSGLYSLSSVVTVPSSSLGTQTYICNVNHKPSNTKVDKRV[omitted - human IgG1 Fc]
light: SYVLTQPPSVSAAPGKTARISCGGNNIRSKSVHWYQQKAGQAPVLVIYQDSKRPSGIPERFSGSNSGNTATLTISGTQAMDEADYYCQAWDSNTVVFGGGTKLTVLGQPKAAPSVTLFPPSSEELQANKATLVCLISDFYPGAVTVAWKADSSPVKAGVETTTPSKQSNNKYAASSYLSLTPEQWKSHRSYSCQVTHEGSTVEKTVAPTECS
For B1, the “ka” value [1] was 263000 M⁻¹ s⁻¹, the “kd” value [1] was 0.00101 s⁻¹ and the “IC50 inhibition of cell proliferation” value [2] was 2.8910 µg/mL. The “MPL-mutCALR AUC” value [3] was 22711, the “MPL-mutCALR EC50 (μg/ml)” value [3] was “No Binding” and the “MPL-mutCALR Hill Slope” value [3] was “No Binding”.

B2: 45 (antibody)
heavy: B1 heavy
light: SYVLTQPLSVSVAPGQTARITCGGNNIGRKSVHWYQQKPGQAPVLVIYRDSNRPSGIPERFSGSNSGNTATLTISRAQAGDEADYYCQVWDSSTVVFGGGTKLTVLGQPKAAPSVTLFPPSSEELQANKATLVCLISDFYPGAVTVAWKADSSPVKAGVETTTPSKQSNNKYAASSYLSLTPEQWKSHRSYSCQVTHEGSTVEKTVAPTECS
In the case of B2, the “ka” value [1] is reported as 214000 M⁻¹ s⁻¹, the “kd” value [1] is reported as 0.0011 s⁻¹ and the “IC50 inhibition of cell proliferation” value [2] is reported as 0.6996 µg/mL. The “MPL-mutCALR EC50 (μg/ml)” value [3] was “Low Binding” and the “MPL-mutCALR Hill Slope” value [3] was “Low Binding”.

B3: 46 (antibody)
heavy: B1 heavy with E1Q
light: B1 light with V3E, A12V, S21T, A39P, I47V, A89V, N93S, V95A
In the case of B3, the “ka” value [1] is reported as 283000 M⁻¹ s⁻¹, the “kd” value [1] is reported as 0.00156 s⁻¹ and the “IC50 inhibition of cell proliferation” value [2] is reported as 0.2779 µg/mL. For the same molecule, the “MPL-mutCALR AUC” value [3] was 28469, the “MPL-mutCALR EC50 (μg/ml)” value [3] was “No binding” and the “MPL-mutCALR Hill Slope” value [3] was “No Binding”.

B4: 47 (antibody)
heavy: B1 heavy
light: B2 light with V3E, L8P, Q16K, N26K, R29T
For B4, the “ka” value [1] was 213000 M⁻¹ s⁻¹, the “kd” value [1] was 0.000772 s⁻¹ and the “IC50 inhibition of cell proliferation” value [2] was 0.5726 µg/mL. The “MPL-mutCALR AUC” value [3] was 26698, the “MPL-mutCALR EC50 (μg/ml)” value [3] was “No Binding” and the “MPL-mutCALR Hill Slope” value [3] was “No Binding”.

B5: 48 (antibody)
heavy: B1 heavy
light: B1 light with A12V, S21T, R28G, A39P, S51R, N93S, V95A
For B5, the “ka” value [1] was 181000 M⁻¹ s⁻¹, the “kd” value [1] was 0.000297 s⁻¹ and the “IC50 inhibition of cell proliferation” value [2] was 0.1908 µg/mL. For the same molecule, the “MPL-mutCALR EC50 (μg/ml)” value [3] was “Low Binding” and the “MPL-mutCALR Hill Slope” value [3] was “Low Binding”.

B6: 49 (antibody)
heavy: B1 heavy
light: SYELTQPPSVSVAPGKTARITCGGNNIRAKHVHWYQQKPGQSPVLVIYQDSKRPSGIPERFSGSNSGSTATLTISRVEAGDEADYYCQVWDSSTVVFGGGTKLTVLGQPKAAPSVTLFPPSSEELQANKATLVCLISDFYPGAVTVAWKADSSPVKAGVETTTPSKQSNNKYAASSYLSLTPEQWKSHRSYSCQVTHEGSTVEKTVAPTECS
In the case of B6, the “ka” value [1] is reported as 185000 M⁻¹ s⁻¹, the “kd” value [1] is reported as 0.000669 s⁻¹ and the “IC50 inhibition of cell proliferation” value [2] is reported as 0.2133 µg/mL. The “MPL-mutCALR Hill Slope” value [3] was 1.72.

B7: 38 (antibody)
heavy: EVQPVQSGAEVKKPGSSVKVSCKASGGTFSSYAISWVRQAPGQGLEWMGLVDPEDGETIYAEKFRGRVTITADTSTDTAYMELSSLRSEDTAVYYCATEESYGPWGQGTLVTVSSASTKGPSVFPLAPSSKSTSGGTAALGCLVKDYFPEPVTVSWNSGALTSGVHTFPAVLQSSGLYSLSSVVTVPSSSLGTQTYICNVNHKPSNTKVDKRV[omitted - human IgG1 Fc]
light: DIQLTQSPSSLSASVGDRVTITCQASQDISNYLNWYQQKPGKAPKLLIYDASNLETGVPSRFSGSGSGTEFTLTISSLQPEDFATYYCQQLNSYPLTFGGGTKLEIKRTVAAPSVFIFPPSDEQLKSGTASVVCLLNNFYPREAKVQWKVDNALQSGNSQESVTEQDSKDSTYSLSSTLTLSKADYEKHKVYACEVTHQGLSSPVTKSFNRGEC
For B7, the “ka” value [1] was 1.28e+06 M⁻¹ s⁻¹, the “kd” value [1] was 0.00268 s⁻¹ and the “Log IC50, Antibody alone” value [4] was −0.035 μg/mL. The “Log IC50, Antibody + ruxolitinib” value ([4]; with 50 nM ruxolitinib) was 0.542 μg/mL, the “IC50 inhibition of cell proliferation” value [2] was 1.9070 µg/mL and the “MPL-mutCALR Hill Slope” value [3] was 0.45.

Reference: patent US20230272055A1, “ANTI-MUTANT CALRETICULIN (CALR) ANTIBODIES AND USES THEREOF” (Incyte Corporation, priority 2021, published 2023)
